# Assay results: the supplement of paper PMC8728848
# This is one part of the list.
# B1: UEA-I (Ulex europaeus), P22972 (protein)
# chain: SDDLSFKFKNFSQNGKDLSFQGDASVIETGVLQLNKVGNNLPDETGGIARYIAPIHIWNCNTGEVASFITSFSFFMETSANPKAATDGLTFFLAPPDSPLRRAGGYFGLFEDTKDNDSSYQTVAVEFDTIGSPVNFDDPGFPHIGIDVNRVKSINAERWNKRYGLNNVANVEIIYEASSKTLTASLTYPSDQTSISVTSIVDLKEILPEWVSVGFSGGTYIGRQATHEVLNWYFTSNLIN
# Assays:
# Experiment in all cases: glycan array binding signal (z-score within array); higher = stronger binding
# Conditions in all cases: glycan notation: IUPAC condensed, linker removed
# [1] = target: Gal(b1-4)GlcNAc(b1-2)Man(a1-6)[Man(a1-3)]Man(b1-4)GlcNAc(b1-4)GlcNAc
# Outline: (§1)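 Glycan array data came from 3228 arrays in the Consortium for Functional Glycomics database, and only arrays with an available protein sequence were kept. Glycan names were put into IUPAC-condensed notation, and columns mapping to the same glycan were averaged. The binding signal is a within-array Z-score, averaged across arrays of one protein sequence run at different concentrations or buffers and across linkers. A negative Z-score can be read as non-binding.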
# [2] = target: Gal(b1-4)GlcNAc(b1-2)[Gal(b1-4)GlcNAc(b1-4)]Man(a1-3)[Gal(b1-4)GlcNAc(b1-2)Man(a1-6)]Man(b1-4)GlcNAc(b1-4)GlcNAc
# Outline: as §1
# [3] = target: Gal(b1-4)GlcNAc(b1-2)[Gal(b1-4)GlcNAc(b1-4)]Man(a1-3)[Gal(b1-4)GlcNAc(b1-2)[Gal(b1-4)GlcNAc(b1-6)]Man(a1-6)]Man(b1-4)GlcNAc(b1-4)GlcNAc
# Outline: as §1
# [4] = target: Gal(b1-4)GlcNAc(b1-2)[Gal(b1-4)GlcNAc(b1-4)]Man(a1-3)[GlcNAc(b1-4)][Gal(b1-4)GlcNAc(b1-2)Man(a1-6)]Man(b1-4)GlcNAc(b1-4)GlcNAc
# Outline: as §1
# [5] = target: Gal(b1-4)GlcNAc(b1-2)[Gal(b1-4)GlcNAc(b1-4)]Man(a1-3)[GlcNAc(b1-4)][Gal(b1-4)GlcNAc(b1-2)[Gal(b1-4)GlcNAc(b1-6)]Man(a1-6)]Man(b1-4)GlcNAc(b1-4)GlcNAc
# Outline: as §1
# [6] = target: Gal(b1-4)GlcNAc(b1-2)[Gal(b1-4)GlcNAc(b1-6)]Man(a1-6)[Gal(b1-4)GlcNAc(b1-2)Man(a1-3)]Man(b1-4)GlcNAc(b1-4)GlcNAc
# Outline: as §1
# [7] = target: Gal(b1-4)GlcNAc(b1-2)[Gal(b1-4)GlcNAc(b1-6)]Man(a1-6)[GlcNAc(b1-4)][Gal(b1-4)GlcNAc(b1-2)Man(a1-3)]Man(b1-4)GlcNAc(b1-4)GlcNAc
# Outline: as §1
# [8] = target: Gal(b1-4)GlcNAc(b1-3)Gal(b1-3)GlcNAc
# Outline: as §1
# [9] = target: Gal(b1-4)GlcNAc(b1-3)Gal(b1-4)Glc
# Outline: as §1
# [10] = target: Gal(b1-4)GlcNAc(b1-3)Gal(b1-4)GlcNAc
# Outline: as §1
# [11] = target: Gal(b1-4)GlcNAc(b1-3)Gal(b1-4)GlcNAc(b1-3)Gal(b1-4)GlcNAc
# Outline: as §1
# [12] = target: Gal(b1-4)GlcNAc(b1-3)Gal(b1-4)[Fuc(a1-3)GlcNAc(b1-6)]Gal(b1-4)Glc
# Outline: as §1
# [13] = target: Gal(b1-4)GlcNAc(b1-3)Gal(b1-4)[Fuc(a1-3)]GlcNAc(b1-3)Gal(b1-4)[Fuc(a1-3)]GlcNAc
# Outline: as §1
# [14] = target: Gal(b1-4)GlcNAc(b1-3)GalNAc
# Outline: as §1
# [15] = target: Gal(b1-4)GlcNAc(b1-3)[Gal(b1-4)GlcNAc(b1-6)]Gal(b1-4)GlcNAc
# Outline: as §1
# [16] = target: Gal(b1-4)GlcNAc(b1-3)[Gal(b1-4)GlcNAc(b1-6)]GalNAc
# Outline: as §1
# [17] = target: Gal(b1-4)GlcNAc(b1-3)[GlcNAc(b1-6)]Gal(b1-4)GlcNAc
# Outline: as §1
# [18] = target: Gal(b1-4)GlcNAc(b1-6)Gal(b1-4)GlcNAc
# Outline: as §1
# [19] = target: Gal(b1-4)GlcNAc(b1-6)GalNAc
# Outline: as §1
# [20] = target: Gal(b1-4)GlcNAc(b1-6)[Gal(b1-3)]GalNAc
# Outline: as §1
# Gal(b1-6)Gal = target: Gal(b1-6)Gal
# Outline: as §1
# Gal3S(b1-3)GalNAc = target: Gal3S(b1-3)GalNAc
# Outline: as §1
# Gal3S(b1-3)GlcNAc = target: Gal3S(b1-3)GlcNAc
# Outline: as §1
# [21] = target: Gal3S(b1-3)[Fuc(a1-4)]GlcNAc
# Outline: as §1
# Gal3S(b1-4)Glc = target: Gal3S(b1-4)Glc
# Outline: as §1
# Gal3S(b1-4)Glc6S = target: Gal3S(b1-4)Glc6S
# Outline: as §1
# Gal3S(b1-4)GlcNAc = target: Gal3S(b1-4)GlcNAc
# Outline: as §1
# Gal3S(b1-4)GlcNAc6S = target: Gal3S(b1-4)GlcNAc6S
# Outline: as §1
# [22] = target: Gal3S(b1-4)[Fuc(a1-3)]Glc
# Outline: as §1
# [23] = target: Gal3S(b1-4)[Fuc(a1-3)]Glc6S
# Outline: as §1
# Gal3S4S(b1-4)GlcNAc = target: Gal3S4S(b1-4)GlcNAc
# Outline: as §1
# Gal3S6S(b1-4)GlcNAc = target: Gal3S6S(b1-4)GlcNAc
# Outline: as §1
# Gal3S6S(b1-4)GlcNAc6S = target: Gal3S6S(b1-4)GlcNAc6S
# Outline: as §1
# Gal4S(b1-4)GlcNAc = target: Gal4S(b1-4)GlcNAc
# Outline: as §1
# Gal4S6S(b1-4)GlcNAc = target: Gal4S6S(b1-4)GlcNAc
# Outline: as §1
# Gal6S(b1-3)GlcNAc = target: Gal6S(b1-3)GlcNAc
# Outline: as §1
# Gal6S(b1-3)GlcNAc6S = target: Gal6S(b1-3)GlcNAc6S
# Outline: as §1
# Gal6S(b1-4)Glc = target: Gal6S(b1-4)Glc
# Outline: as §1
binder,measurement,setting,value
B1,glycan array binding signal (z-score),[1],-0.178
same,glycan array binding signal (z-score),[2],-0.189
same,glycan array binding signal (z-score),[3],-0.175
same,glycan array binding signal (z-score),[4],-0.173
same,glycan array binding signal (z-score),[5],-0.165
same,glycan array binding signal (z-score),[6],-0.124
same,glycan array binding signal (z-score),[7],-0.176
same,glycan array binding signal (z-score),[8],-0.181
same,glycan array binding signal (z-score),[9],-0.174
same,glycan array binding signal (z-score),[10],-0.185
same,glycan array binding signal (z-score),[11],-0.188
same,glycan array binding signal (z-score),[12],-0.169
same,glycan array binding signal (z-score),[13],-0.19
same,glycan array binding signal (z-score),[14],-0.179
same,glycan array binding signal (z-score),[15],-0.181
same,glycan array binding signal (z-score),[16],-0.176
same,glycan array binding signal (z-score),[17],-0.185
same,glycan array binding signal (z-score),[18],-0.181
same,glycan array binding signal (z-score),[19],-0.165
same,glycan array binding signal (z-score),[20],-0.181
same,glycan array binding signal (z-score),Gal(b1-6)Gal,-0.183
same,glycan array binding signal (z-score),Gal3S(b1-3)GalNAc,-0.172
same,glycan array binding signal (z-score),Gal3S(b1-3)GlcNAc,-0.172
same,glycan array binding signal (z-score),[21],-0.182
same,glycan array binding signal (z-score),Gal3S(b1-4)Glc,-0.183
same,glycan array binding signal (z-score),Gal3S(b1-4)Glc6S,-0.038
same,glycan array binding signal (z-score),Gal3S(b1-4)GlcNAc,-0.175
same,glycan array binding signal (z-score),Gal3S(b1-4)GlcNAc6S,-0.174
same,glycan array binding signal (z-score),[22],-0.187
same,glycan array binding signal (z-score),[23],-0.171
same,glycan array binding signal (z-score),Gal3S4S(b1-4)GlcNAc,-0.179
same,glycan array binding signal (z-score),Gal3S6S(b1-4)GlcNAc,-0.176
same,glycan array binding signal (z-score),Gal3S6S(b1-4)GlcNAc6S,-0.174
same,glycan array binding signal (z-score),Gal4S(b1-4)GlcNAc,-0.187
same,glycan array binding signal (z-score),Gal4S6S(b1-4)GlcNAc,-0.18
same,glycan array binding signal (z-score),Gal6S(b1-3)GlcNAc,-0.186
same,glycan array binding signal (z-score),Gal6S(b1-3)GlcNAc6S,-0.169
same,glycan array binding signal (z-score),Gal6S(b1-4)Glc,-0.184
